PubChem BioAssay AID1479 (National Center for Advancing Translational Sciences (NCATS), 2009)
Where “and” joins values, the source holds several entries; their conditions need not be identical. Equal entries are not always repeated. Hit rate of the full screen: of about 280,000 compounds, about 820 (0.29%) were called active. The inconclusive results got no clear call from the source; some entries with a clear call stand among them for comparison. Calls follow the shape of the dose curve; as a rule, active = well fitted curve in either direction with a large enough effect; inconclusive = small, poorly fitted or top-dose-only effect; inactive = flat fitted curve, though single readings scatter. Potencies of inconclusive entries are doubtful fits and often do not repeat. The source holds several records for some structures; these can differ, active in one and inactive in another.

Test: Total Fluorescence Counterscreen for Inhibitors of the Interaction of Thyroid Hormone Receptor and Steroid Receptor Coregulator 2
Conditions: TRb/SRC2 Texas Red total fluorescence interference; series mostly up to 106 µM; fluorescence change, negative = quenching: at the top concentration
How it was run: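 Human TRb ligand-binding domain at 0.6 uM with 20 nM Texas Red SRC2 peptide in Tris buffer containing 1 uM T3 and 5% DMSO, incubated with compound 5 h at ambient temperature. Total fluorescence (555/632 nm) calculated as parallel + 2 × perpendicular.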
% is scaled to controls: 0 for no effect and ±100 for the full control effect; potency is read from the fitted curve at half-maximal effect; tags tell the direction and shape of the fitted curve or compound fluorescence and quenching.

Row | SMILES | Potency | fluorescence change, negative = quenching
1 | COc1ccc(CNC(=O)CN2C(=O)CC(c3ccccc3)=Nc3ccccc32)cc1 | inconclusive: 70.8 µM [rising, single point] | –
2 | O=C(N/N=C/c1cccs1)c1cccc(NC(=O)c2ccccc2Cl)c1 | inconclusive: 7.08 µM [falling, full curve, poor fit] | –
3 | Cn1c(C(=O)Nc2ccc(OC(F)(F)F)cc2)cc2c(=O)n3ccccc3nc21 | inconclusive: 100 µM [falling, partial curve, poor fit] | –
4 | Cc1ccc(-c2ccc(/C=N/NC(N)=S)o2)cc1 | – | inactive: 2.6%
5 | COc1ccc(CNC(=O)CCNS(=O)(=O)c2ccc3c(c2)CCCC(=O)N3)cc1 | inconclusive: 0.0028 µM [falling, full curve, poor fit] | –
6 | CCn1c(CSc2nc3ccccc3s2)nnc1SCC(=O)c1ccc(O)cc1O | – | inactive: 0.212%
7 | CC1(C)c2ccccc2N2CCC(=O)NC21/C=C/c1ccco1 (stereo unspecified) | active: 44.7 µM [fluorescent] | –
8 | Cc1cc(C)cc(-n2c(SCC(=O)NC3CCCCC3)nc3c([nH]c4ccccc43)c2=O)c1 | – | inactive: 1.22%
9 | Cc1c(Cl)cccc1NC(=O)c1cc2nc(-c3ccc4c(c3)OCO4)cc(C(F)(F)F)n2n1 | inconclusive: 708 µM [falling, partial curve, poor fit] | –
10 | CC(C)(N)C(=O)N[C@@H](Cc1cnc[nH]1)C(=O)N[C@H](Cc1ccc2ccccc2c1)C(=O)N[C@H](Cc1ccccc1)C(=O)N[C@@H](CCCCN)C(N)=O | inconclusive: 0.0708 µM [quencher, full curve] | –
11 | Cc1ccc2sc(C)[n+](CCCS(=O)(=O)[O-])c2c1 | inconclusive: 3.16 µM [rising, full curve, poor fit] | –
12 | c1ccc(Oc2ncnc3oc(-c4ccccc4)cc23)cc1 | inconclusive: 70.8 µM [rising, single point] | –
13 | CCC1CN(C(=O)N2CCC(C(=O)NCCCc3ccccc3)CC2)c2cc(C)ccc2O1 (stereo unspecified) | – | inactive: -20.4%
14 | OCCN(CCO)c1nc(N2CCCCC2)c2nc(N(CCO)CCO)nc(N3CCCCC3)c2n1 | active: 39.8 µM [fluorescent] | –
15 | Cc1ccc(NC(=O)Cn2c(=O)n(CCC(=O)N3CCc4ccccc4C3)c(=O)c3ccccc32)c(C)c1 | inconclusive: 0.0126 µM [falling, full curve, poor fit] | –
16 | CCOC(=O)c1ccc(NC(=O)CN2C(=O)C(C)(C)c3ccccc32)cc1 | inconclusive: 1120 µM [falling, partial curve, poor fit] | –
17 | Cc1ccc(C)c(NC(=O)c2cnn(-c3ccc(F)cc3F)c2C2CCNCC2)c1 | inconclusive: 31.6 µM [quencher, full curve] | –
18 | COc1cc(CN(C(=O)COc2ccc(Br)cc2)c2ccccn2)cc(OC)c1OC | inconclusive: 0.0007 µM [falling, full curve, poor fit] | –
19 | CCCCCNC(=O)c1c[nH]c2ccc(S(=O)(=O)N3CCC(C)CC3)cc2c1=O | – | inactive: 0.376%

Row | SMILES | Potency | fluorescence change, negative = quenching
20 | COc1ccccc1CNC(=O)CCn1c(=O)c2ccccc2n(CC(=O)Nc2ccc(C)cc2)c1=O | inconclusive: 316 µM [falling, partial curve, poor fit] | –
21 | Cc1cc(C(=O)N/N=C/c2ccc([N+](=O)[O-])s2)n[nH]1 | – | inactive: -5.97%
22 | COc1cc2c(cc1OC)C(c1ccccc1F)OC(=O)C2 (stereo unspecified) | inconclusive: 0.02 µM [falling, full curve, poor fit] | –
23 | COC(=O)c1c(NC(=O)c2cccc(OC)c2)sc2c1CCC(C(C)(C)C)C2 (stereo unspecified) | inconclusive: 100 µM [falling, partial curve, poor fit] | –
24 | CCOc1ccc(C2c3c(-c4ccc(C)cc4)n[nH]c3C(=O)N2c2ccc(Cl)cc2)cc1 (stereo unspecified) | – | inactive: 0.164%
25 | Cc1ccc(-c2[nH]ncc2/C=N/n2c(COc3ccccc3)nc3ccccc3c2=O)cc1 | – | inactive: 3.29%
26 | Cc1nn(-c2ccccc2)c(C)c1/C=N/Nc1nc2ccccc2[nH]1 | inconclusive: 447 µM [falling, partial curve, poor fit] | –
27 | O=C1c2cccc3c(N4CCCCC4)ccc(c23)C(=O)N1c1ccccc1O | – | inactive: -0.762%
28 | N#Cc1ccccc1-c1cncnc1NCc1cccnc1 | inconclusive: 224 µM [quencher, partial curve] | –
29 | O=C(O)[C@@H]1C[C@H](C(=O)O)N1 | inconclusive: 355 µM [falling, partial curve, poor fit] | –
30 | Cc1ccc(/C=N/n2c(=O)c(C(C)(C)C)nn3cnnc23)cc1 | active: 0.0794 µM [quencher] | –
31 | O=C(CN1CCSc2ccccc21)N1CCN(c2cccc(Cl)c2)CC1 | inconclusive: 2510 µM [falling, partial curve, poor fit] | –
32 | COc1ccc(CCNC(=O)CCc2c(C)nc3c(c(C)nn3-c3ccc(C)cc3)c2C)c(OC)c1 | inconclusive: 1 µM [falling, full curve, poor fit] | –
33 | COc1ccc(NS(=O)(=O)c2ccc(NC(=O)N3CCCC3)cc2)cc1 | inconclusive: 0.0003 µM | –
34 | CCCC(CCC)C(=O)NC1CCN(Cc2ccccc2)CC1 | – | inactive: -1.61%
35 | COC(=O)C(C)Sc1nnc2cc(C)c3cc(C)cc(C)c3n12 (stereo unspecified) | active: 0.0708 µM [quencher] | –
36 | CC[C@H](C)[C@H](NC(=O)[C@H](Cc1ccc(O)cc1)NC(=O)[C@H](Cc1cnc[nH]1)NC(=O)[C@H](CCCNC(=N)N)NC(=O)[C@H](CC(C)C)NC(=O)[C@H](C)NC(=O)[C@H](CO)NC(=O)[C@H](Cc1ccc(O)cc1)NC(=O)[C@H](Cc1ccc(O)cc1)NC(=O)[C@H](CCCNC(=N)N)NC(=O)[C@H](C)NC(=O)[C@H](CC(C)C)NC(=O)[C@H](CC(=O)O)NC(=O)[C@H](CCC(=O)O)NC(=O)[C@H](C)NC(=O)[C@@H]1CCCN1C(=O)[C@H](C)NC(=O)[C@H](CC(=O)O)NC(=O)[C@H](CCC(=O)O)NC(=O)CNC(=O)[C@@H]1CCCN1C(=O)[C@H](CC(N)=O)NC(=O)[C@H](CC(=O)O)NC(=O)[C@@H]1CCCN1C(=O)[C@H](CCCCN)NC(=O)[C@@H](N)CO)C(=O)N[C@@H](CC(N)=O)C(=O)N[C@@H](CC(C)C)C(=O)N[C@H](C(=O)N[C@H](C(=O)N[C@@H](CCCNC(=N)N)C(=O)N[C@@H](CCC(N)=O)C(=O)N[C@@H](CCCNC(=N)N)C(=O)N[C@@H](Cc1ccc(O)cc1)C(N)=O)[C@@H](C)O)[C@@H](C)CC | – | inactive: -0.974%
37 | CCc1nn(CC(=O)NCCN(CC(C)C)CC(C)C)c(=O)c2cc3sc(C)cc3n12 | inconclusive: 20 µM [falling, full curve, poor fit] | –
38 | NS(=O)(=O)c1cc2c(cc1Cl)NC(C1CC3C=CC1C3)NS2(=O)=O (stereo unspecified) | inconclusive: 0.141 µM [falling, full curve, poor fit] | –

Row | SMILES | Potency | fluorescence change, negative = quenching
39 | O=S(=O)(O)c1cc(O)c2c(N=Nc3ccc(Nc4ccccc4)c4c(S(=O)(=O)O)cccc34)cc(S(=O)(=O)O)cc2c1 | active: 20 µM [quencher] | –
40 | CCOc1ccc(S(=O)(=O)N(CC(=O)N/N=C/c2ccc(-c3ccc([N+](=O)[O-])cc3)o2)c2ccccc2)cc1 | inconclusive: 35.5 µM [quencher, partial curve] | –
41 | CC(CC(=O)NCc1ccc(Cl)cc1Cl)CC1=NS(=O)(=O)c2ccccc2N1 (stereo unspecified) | inconclusive: 282 µM [falling, partial curve, poor fit] | –
42 | O=c1oc2c(O)c(O)cc3c(=O)oc4c(O)c(O)cc1c4c23 | inconclusive: 25.1 µM [quencher, full curve] and inconclusive: 39.8 µM [quencher, partial curve] | –
43 | COc1cc2c(cc1OC)n(CC(=O)Nc1ccccc1)c(=O)n1nc(-c3ccccc3)nc21 | inconclusive: 5.01 µM [quencher, full curve] | –
44 | COCCN1C(=O)/C(=C/c2ccc(OCc3ccc(C(=O)O)cc3)c(OC)c2)SC1=Nc1ccccc1 | – | inactive: -1.42%
45 | CC(NC(=O)CN1C(=O)COc2ccc(Cl)cc21)c1ccccc1 (stereo unspecified) | inconclusive: 0.0355 µM [falling, full curve, poor fit] | –
46 | CCn1c(=O)cc(OCC(=O)N2CCN(c3cccc(Cl)c3)CC2)c2ccccc21 | inconclusive: 10 µM [falling, partial curve, poor fit] | –
47 | CCc1ccccc1NC(=O)CN1C(=O)c2cccnc2Sc2ccccc21 | inconclusive: 0.0089 µM [falling, full curve, poor fit] | –
48 | COc1cccc2c1C(=O)c1c(O)c3c(c(O)c1C2=O)C[C@@](O)(C(C)=O)C[C@@H]3O[C@H]1C[C@H](N)[C@H](O)[C@H](C)O1 | active: 31.6 µM [fluorescent] and active: 44.7 µM [fluorescent] | –
49 | O=c1oc2ccccc2cc1-c1nc2c(s1)CCCC2 | – | inactive: -6.59%
50 | COc1cc(C(=O)Nc2ccc(-c3nc4ccccc4o3)c(O)c2)cc(OC)c1OC | inconclusive: 1260 µM [falling, partial curve, poor fit] | –
51 | Cc1cn2c(=O)cc(COC(=O)c3ccc(NC(=O)COc4ccc(C)c(C)c4)cc3)nc2s1 | – | inactive: 0.265%
52 | COc1cc(C(=O)O)c([N+](=O)[O-])c(OC)c1OC | – | inactive: -1.26%
53 | Cc1ccc(S(=O)(=O)NCC(Nc2cccc(Cl)c2)c2ccccc2)cc1 (stereo unspecified) | inconclusive: 11.2 µM [quencher, full curve] | –
54 | Cc1ccccc1N(CC(=O)NCCSCc1ccco1)S(C)(=O)=O | – | inactive: 0.151%
55 | Cc1ccc(Cc2cnc(N)s2)o1 | inconclusive: 44.7 µM [quencher, partial curve] | –
56 | Cc1nc2c(C(=O)NCc3ccccc3Cl)c[nH]n2c(=O)c1Cc1cccc(Cl)c1 | inconclusive: 7.08 µM [quencher, full curve] | –
